Assay results as given in PubChem BioAssay (NCATS).
The inconclusive results got no clear call from the source; some entries with a clear call stand among them for comparison. No potency is given beside an inconclusive call; the fits are too rough. Activity calls are given as the source filed them. Calls come from the whole dose curve; as a rule, active = well fitted inhibition curve with a large enough effect; inconclusive = small, poorly fitted or top-dose-only effect; inactive = no such curve, though single readings can be large or run the other way.

assay: qHTS Screen of the MIPE 4.0 Collection Against Ewings Sarcoma (TC71) (AID 1259253); settings: TC71 Ewing sarcoma viability, CellTiter-Glo, 48 h; series mostly up to 45.8 µM; viability (% of DMSO): at the top concentration; note: nearly all actives have a fitted effect of over 40% in size;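 for viability (% of DMSO): 100% = DMSO-treated cells and 0% = medium-only wells without cells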
Method in brief: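 Dose series incubated 48 h with cells in RPMI plus 5% FBS, glutamine and penicillin/streptomycin; cell viability then quantified via CellTiter-Glo.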
Potency is the fitted concentration of half-maximal effect; tags give direction and shape of the fitted curve.

Row | Compound | viability (% of DMSO) | Potency
1 | CC(C)(C)C(=O)Oc1ccc(S(=O)(=O)Nc2ccccc2C(=O)NCC(=O)O)cc1 | inactive: 132% | –
2 | CC1CNc2c(cccc2S(=O)(=O)N[C@@H](CCCN=C(N)N)C(=O)N2CC[C@@H](C)C[C@@H]2C(=O)O)C1 (stereo partly specified) | – | inconclusive [inhibitor, partial curve]
3 | O=C1C(c2c(O)[nH]c3ccccc23)=Nc2ccccc21 | – | inconclusive [inhibitor, partial curve, poor fit]
4 | N#CC(c1ccc(Cl)cc1)c1c(Cl)cc(-n2ncc(=O)[nH]c2=O)cc1Cl (stereo unspecified) | – | inconclusive [inhibitor, single point]
5 | N#CC(=C(O)c1ccc(Cl)cc1Cl)c1nc2cc(Cl)ccc2c(=O)[nH]1 | inactive: 131% | –
6 | Cc1cc(-c2ncc(CC(=O)Nc3ccc(-c4cnccn4)cn3)cc2C)ccn1 | – | inconclusive [inhibitor, partial curve]
7 | O=C(O)CCCc1c[nH]c2ccccc12 | inactive: 115% | –
8 | C=CC[C@@H]1C=C(C)C[C@H](C)C[C@H](OC)[C@H]2O[C@@](O)(C(=O)C(=O)N3CCCC[C@H]3C(=O)O[C@H](C(C)=C[C@@H]3CC[C@H](O)[C@H](OC)C3)[C@@H](C)[C@@H](O)CC1=O)[C@@H](C)C[C@@H]2OC | – | active: 1.87 µM
9 | C[C@@H](NC(=O)c1ncnc(N)c1Cl)c1ncc(C(=O)Nc2cc(C(F)(F)F)c(Cl)cn2)s1 | – | inconclusive [inhibitor, single point]
10 | Cc1cc(C(C)Nc2ccccc2)c2nc(N3CCOCC3)cc(=O)n2c1 (stereo unspecified) | – | inconclusive [inhibitor, single point]
11 | Nc1ccc(S(N)(=O)=O)cc1 | – | inconclusive [inhibitor, single point]
12 | COc1ccc2c(c1OC)C(=O)OC2[C@H]1c2c(cc3c(c2OC)OCO3)CCN1C (stereo partly specified) | – | active: 0.235 µM
13 | CNC(=O)c1c(-c2ccc(F)cc2)oc2cc(N(CCO)S(C)(=O)=O)c(C3CC3)cc12 | – | inconclusive [inhibitor, partial curve, poor fit]
14 | O=C1CCC(N2C(=O)c3ccccc3C2=O)C(=O)N1 (stereo unspecified) | inactive: 126% | –
15 | C[C@H](CCC(=O)O)[C@H]1CC[C@H]2[C@@H]3[C@H](O)C[C@@H]4C[C@H](O)CC[C@]4(C)[C@@H]3CC[C@]12C | inactive: 151% | –
16 | Clc1ccc(C2(c3ccc(-c4cn[nH]c4)cc3)CCNCC2)cc1 | – | inconclusive [inhibitor, partial curve]
17 | CCCCC(=O)O[C@]1(C(=O)CO)[C@@H](C)C[C@H]2[C@@H]3CCC4=CC(=O)C=C[C@]4(C)[C@@]3(F)[C@@H](O)C[C@@]21C | inactive: 112% | –
18 | Cc1cccc(CN2CCN(C(c3ccccc3)c3ccc(Cl)cc3)CC2)c1 (stereo unspecified) | – | inconclusive [inhibitor, partial curve]
19 | CC=CC1=C(C(=O)O)N2C(=O)[C@H](NC(=O)[C@H](N)c3ccc(O)cc3)[C@@H]2SC1 | inactive: 120% | –
20 | Nc1ncnc2c1c(-c1cccc(OCc3ccccc3)c1)cn2C1CC(CN2CCC2)C1 (stereo unspecified) | – | inconclusive [inhibitor, full curve]
21 | CO[C@H]1/C=C\O[C@@]2(C)Oc3c(C)c(O)c4c(O)c(c(C=NN5CCN(C6CCCC6)CC5)c(O)c4c3C2=O)NC(=O)C(C)=CC=C[C@H](C)[C@H](O)[C@@H](C)[C@@H](O)[C@@H](C)[C@H](OC(C)=O)[C@H]1C | – | inconclusive [inhibitor, full curve]
22 | C[C@H]1O[C@@H](n2cc(F)c(=O)[nH]c2=O)[C@H](O)[C@H]1O | – | inconclusive [inhibitor, partial curve]
23 | Cn1cnc(-c2cc3nccc(Oc4ccc(NC(=S)NC(=O)Cc5ccccc5)cc4F)c3s2)c1 | – | inconclusive [inhibitor, partial curve]
24 | O=C(Nc1cccc2c(=O)cc(-c3nn[nH]n3)oc12)c1ccc(OCCCCc2ccccc2)cc1 | – | active: 18.7 µM
25 | CC(Oc1ccc(O)cc1)(P(=O)(O)O)P(=O)(O)O | inactive: 109% | –
26 | COC(=O)N[C@H](C(=O)N[C@@H](Cc1ccccc1)[C@@H](O)CN(Cc1ccc(-c2ccccn2)cc1)NC(=O)[C@@H](NC(=O)OC)C(C)(C)C)C(C)(C)C | – | inconclusive [inhibitor, partial curve, poor fit]
